Our source for the survival values is PubChem BioAssay AID463173 (ICCB-Longwood Screening Facility, Harvard Medical School, 2010).

Structures are written as SMILES. The campaign covered roughly 52,000 compounds. About 4,300 (8.3%) were called active. No stated cut-off is given here; in the data, active means survival mostly below about 52% (no sharp cut-off); inactive means mostly above about 56%. The list shows a part of the results.

In the assay the test system is DeltatarO mutant. Nature of the assay: S. aureus survival, RN4220 and DeltatarO strains – OD600, teichoic acid synthesis inhibitors, primary screen (AID 463173). The following applies: S. aureus RN4220 wild type/DeltatarO growth, OD600, 18 h, hits give low values, screened at 18.75 µg/mL (by protocol).
In the case of `O=C(c1ccco1)N1CCN(c2nc3c(Cl)cccc3s2)CC1`, the survival is inactive: 118%.
To `CCOC(=O)c1[nH]c2c(c1Cc1ccccc1OC)C(=O)CC(c1ccc(OCC)cc1)C2` (stereo unspecified) belongs inactive: 95%; to `O=C(NCc1ccc2c(c1)OCO2)c1ccccc1Cl`, inactive: 62%; to `COc1ccc(C(=O)CCC(=O)Nc2ccc(OC)c(Cl)c2)cc1`, inactive: 86%.
Regarding `CCN(CC)S(=O)(=O)c1ccc2c(c1)N(CC(=O)Nc1ccc(C)cc1C)C(=O)C1CCCN21` (stereo unspecified), the survival is inactive: 86%.
In the case of `COc1ccccc1N1CCN(c2nc3ccc(C)cc3n3nnnc23)CC1` it was inactive: 128%; in that of `CC(C)NC(=O)c1ccccc1NC(=O)c1nsc2ccccc12`, inactive: 54%; in that of `Cc1ccc(S(=O)(=O)c2nc(S(C)(=O)=O)sc2NCc2ccccc2)cc1`, inactive: 76%.
`CCOC(=O)c1c(C)oc2nc(C)nc(NCCc3ccc(SC)cc3)c12`: the survival was inactive: 83%.
As to `COc1cc(NC(=O)Cn2nc(-c3ccc(C)c(C)c3)ccc2=O)cc(OC)c1`, the survival is inactive: 71%.
To `CC(C)COC(=O)Cc1c(O)c2ccccc2[nH]c1=O` belongs active: 39%.
With `Cc1nn2c(=O)cc(COC(=O)c3cccc(NC(=O)c4ccc(C(C)(C)C)cc4)c3)nc2s1`, the survival is inactive: 85%.
`O=C(COC(=O)c1cccc(NC(=O)c2ccc(Br)cc2)c1)c1ccc(Br)cc1`: the survival is inactive: 64%.
To `CC1SC(NC(=O)COc2ccccc2)=NC1=O` (stereo unspecified) belongs inactive: 78%; to `CCc1ccc(NCc2cc3cc(OC)c(OC)cc3n(CC(=O)Nc3cc(C)ccc3C)c2=O)cc1`, inactive: 75%.
`CN(C(=O)CN1C(=O)CCSc2ccc(S(=O)(=O)N3CCCC3)cc21)c1ccccc1`: the survival was inactive: 76%.
In the case of `Cc1cccc(C)c1Nc1nc2ccccc2nc1NS(=O)(=O)c1ccccc1` it was inactive: 79%; in that of `CCC(C)OC(=O)/C(C#N)=C\c1ccc(-c2cccc(C(F)(F)F)c2)o1` (stereo unspecified), inactive: 64%; in that of `COc1ccc(S(=O)(=O)N(CC(=O)NCc2ccccc2)c2ccc(C)cc2)cc1OC`, inactive: 69%.
For the compound `O=S(=O)(c1ccc2c(c1)CCN2)N1CCCCCC1`, the survival was inactive: 85%.
To `Cc1ccc2c(c1)c1c(c(=O)n(Cc3ccccc3)c(=O)n1CC(=O)NCc1ccccc1Cl)n2C` belongs inactive: 71%; to `Cc1cc(O)c(C(c2ccccc2)N2CCN(C)CC2)c(=O)n1Cc1ccco1` (stereo unspecified), inactive: 112%; to `O=C(Nc1ccccc1)N(Cc1ccc(F)cc1)c1ccccn1`, inactive: 56%.
As to `C=Cc1ccc(CN2C(=O)c3ccccc3Sc3ccc(C(=O)OCc4ccco4)cc32)cc1`, the survival was inactive: 78%.
In the case of `COc1ccc(-c2noc(CN(C(C)C)S(=O)(=O)c3ccc(Br)cc3)n2)cc1` it was active: 44%; in that of `CC1=C(C(=O)N2CCN(c3cccc(C)c3C)CC2)C2(CCCCC2)OC1=O`, inactive: 80%.
In the case of `Cc1cccc(NC2=CC(c3cccc(Br)c3)N(c3cccc(C)c3)C2=O)c1` (stereo unspecified) it was inactive: 137%; in that of `CCOC(=O)c1c(C)[nH]c(C)c1S(=O)(=O)NCC(=O)N1CCN(c2cccc(C)c2)C(C)C1` (stereo unspecified), inactive: 108%.
To `CCOC(=O)c1cc(=O)n2[nH]c(-c3ccc(Br)cc3)cc2n1` belongs inactive: 93%; to `O=C(Cn1c(=O)nc(-c2ccccc2)c2ccccc21)NCc1ccc(F)cc1`, inactive: 98%.
Regarding `O=C(c1ccccc1)N(Cc1ccc2c(c1)OCO2)Cc1nc2ccccc2c(=O)[nH]1`, the survival was inactive: 77%.
To `Cc1ccccc1-c1noc(-c2cccnc2N(C)Cc2ccc(Cl)cc2)n1` belongs inactive: 56%.
For `O=C(C1CC1)N1CCN(c2nc3c(Cl)cccc3s2)CC1`, the survival is inactive: 77%.
`Fc1ccc(Cc2cn3cc(-c4ccccc4)nc3s2)cc1`: the survival is active: 51%.
In the case of `COc1ccc(CCNC(=O)CSc2nnnn2-c2cccc(C(C)=O)c2)cc1OC` it was inactive: 64%; in that of `CCOC(=O)c1cccc(NC(=O)CCC(=O)N2CC(C)Oc3ccc(C)cc32)c1` (stereo unspecified), inactive: 51%.
In the case of `CCN(CC)CCCNC(=O)c1ccc2c(c1)NC(=O)C(CS(=O)(=O)Cc1cccc(Br)c1)N2` (stereo unspecified), the survival is inactive: 128%.
To `Cc1ccc(CNC(=O)c2c(O)nc3c(C)cccn3c2=O)cc1` belongs inactive: 64%; to `Cc1ccc(C)c2[nH]c(=O)c(CN(Cc3ccco3)Cc3nnnn3C(C)(C)C)cc12`, inactive: 81%; to `O=C1CCC(=O)N1CC(=O)N1CCCc2ccccc21`, inactive: 85%.
In the case of `Cc1nc2ccc(S(=O)(=O)NC(CC(C)C)C(=O)N3CCN(c4ccc(F)cc4)CC3)cc2s1` (stereo unspecified) it was inactive: 70%; in that of `CC1Oc2ccccc2N(CC(=O)NC2CCCC2)C1=O` (stereo unspecified), inactive: 57%; in that of `COc1ccc(Br)cc1CNC(=O)c1nn(-c2ccc(C)cc2)c(=O)c2c1c1ccccc1n2C`, inactive: 131%.
Take `Cc1ccc(NC(=O)C2CCCN2S(=O)(=O)c2cccc3nsnc23)cc1Cl` (stereo unspecified): the survival is inactive: 57%.
To `COc1ccc(CNC(=O)CSc2ncc(S(=O)(=O)c3ccc(C)c(Cl)c3)c(=O)[nH]2)cc1` belongs inactive: 80%.
In the case of `C=CCC(C)(NCc1ccccc1)c1ccco1` (stereo unspecified) it was inactive: 110%; in that of `CC1CCN(S(=O)(=O)c2ccc3c(c2)CCN3C(=O)Nc2ccc(Br)cc2)CC1`, inactive: 69%.
To `Cc1c(C(=O)Nc2ccc(C(C)C)cc2)sc2nc[nH]c(=O)c12` belongs inactive: 77%; to `O=C1c2cccc3c(N4CCNCC4)ccc(c23)C(=O)N1c1ccc(Cl)cc1`, inactive: 95%; to `CC1CCN(S(=O)(=O)c2ccc3c(c2)N(CC(=O)NC(C)C)C(=O)CO3)CC1`, inactive: 76%.
Turning to `Cc1ccc(-c2nnc(Nc3ccc(Cl)c(Cl)c3)c3ccccc23)cc1S(=O)(=O)NCCO`, the survival is inactive: 79%.
In the case of `COc1cccc(CNC(=O)CSc2ncc(S(=O)(=O)c3ccc(Br)cc3)c(=O)[nH]2)c1` it was inactive: 72%; in that of `COc1ccc(CCNC(=O)c2ccc(CS(=O)(=O)Cc3cccc(C)c3)o2)cc1OC`, inactive: 80%.
In the case of `CCN1CCN(C(c2ccc(F)cc2)c2c(O)cc(C)n(CCOC)c2=O)CC1` (stereo unspecified) it was inactive: 79%; in that of `CN(C)c1ccc(C(=O)NC2CCSC2=O)cc1` (stereo unspecified), inactive: 66%; in that of `CCc1cccc2c(-c3ccc(F)cc3)nc(SCC(=O)Nc3ccccc3)nc12`, inactive: 93%.
In the case of `CC1(C)CC(NC(=O)Cc2ccc(Cl)cc2)CC(C)(C)N1` it was inactive: 83%.
For `Cc1nonc1OCCn1nnc(N)n1`, the survival was inactive: 95%.
To `COc1ccc(C(=O)Nc2ccc(-c3cc4ccccc4oc3=O)c(C)c2)cc1OC` belongs inactive: 69%; to `CC(C)CNC(=O)C1CCCN1C(=O)Nc1ccccc1` (stereo unspecified), inactive: 106%.
In the case of `CC(C)CCNC(=O)C1CCN(C(=O)N2CCOc3ccc(Cl)cc32)CC1` it was inactive: 52%; in that of `CCOC(=O)N1CCN(c2cc3cc(OC)ccc3oc2=O)CC1`, inactive: 67%; in that of `O=C(C1CCC(Cn2c(=O)c3sccc3n(Cc3cccc(F)c3)c2=O)CC1)N1CCCCC1` (stereo unspecified), inactive: 92%.
In the case of `CC(=O)NC(C)C1COc2ccccc2O1` (stereo unspecified) it was inactive: 81%; in that of `O=C(NCCc1ccccc1)C(=O)NCC(c1cccnc1)N1CCN(c2ccccc2F)CC1` (stereo unspecified), inactive: 75%; in that of `COc1ccccc1Nc1nn2c(=O)c3ccc(C(=O)NCc4ccc(F)cc4)cc3nc2s1`, inactive: 78%.
Take `O=C(NC1CCCCCC1)c1ccc2c(c1)sc1nc(-c3ccccc3)cn12`: the survival is inactive: 55%.
In the case of `COc1cc(C2CC(=O)N(c3ccccc3)C3=C2C(=O)OC3)cc(OC)c1OC` (stereo unspecified) it was inactive: 72%.
Regarding `CCOC(=O)c1c(C)[nH]c(C)c1S(=O)(=O)N1CCCC(C(=O)Nc2ccc(F)cc2F)C1` (stereo unspecified), the survival was inactive: 88%.
In the case of `CCOc1ccc(NC(=O)CSc2cn(CC(=O)N3CCCCCC3)c3ccccc23)cc1` it was inactive: 95%; in that of `COc1ccc(-c2n[nH]c3c2C(c2ccc(O)cc2)N(c2ccc(Br)cc2)C3=O)cc1` (stereo unspecified), active: -3%; in that of `CSc1cccc(NC(=O)N2CCN(c3cc(-c4noc(C)n4)ccc3C)CC2)c1`, inactive: 68%.
Regarding `CC(C)NC(=O)C(N)Cc1c[nH]c2ccccc12` (stereo unspecified), the survival is inactive: 92%.
Consider `CCOc1cc(C(=O)N2CCc3c([nH]c4ccccc34)C2c2ccccc2)cc(OCC)c1OCC` (stereo unspecified), for which the survival is inactive: 91%.
In the case of `CCCn1c(C(=O)OCC)cc2sccc21` it was inactive: 100%; in that of `N#Cc1c[nH]n2c(NC3CCCC3)c(-c3cccc(Cl)c3)nc12`, inactive: 48%.
As for `COc1ccc(C)cc1NC(=O)Cn1c(=O)ccc2cc(S(=O)(=O)N3CCCC3)ccc21`, the survival was inactive: 72%.
In the case of `CCOC(=O)c1sc2ncn(CC(=O)Nc3ccc(C)cc3Br)c(=O)c2c1C` it was inactive: 66%.
As for `O=C(CCCN1C(=O)c2ccccc2C1=O)N1CCCCC1`, the survival was inactive: 71%.
Take `O=c1onc(-c2ccc(Cl)cc2)n1Cc1ccc(F)cc1`: the survival is inactive: 90%.
In the case of `COc1ccc(/C=N/N=C2/NC(=O)/C(=C(/C)c3nonc3C)S2)cc1OC` it was inactive: 69%; in that of `OCC(O)CN1CCc2ccccc21` (stereo unspecified), inactive: 98%.
In the case of `COc1ccccc1CNc1ccc(-c2nc(-c3ccncc3)no2)cc1[N+](=O)[O-]`, the survival is active: 45%.
In the case of `Cn1c(CNc2cccc(Cl)c2)nnc1SCC(=O)OC1CCCCC1`, the survival is inactive: 94%.
In the case of `Cc1cc2ccccc2n1CCNC(=O)c1cccc(Cl)c1` it was inactive: 65%; in that of `COc1ccc(CNC(=O)CC(c2ccc(OC)c(OC)c2)N2Cc3ccccc3C2=O)cc1` (stereo unspecified), inactive: 87%; in that of `CC(C)c1ccc(NC(=O)c2cc(S(=O)(=O)NCc3ccccc3Cl)ccc2F)cc1`, inactive: 103%.
In the case of `CCOc1ccc(Sc2cc(C(=O)NCCc3ccccc3)c3ccccc3n2)cc1` it was inactive: 73%.
Turning to `CCOc1nc(NC(=O)NS(=O)(=O)Oc2ccccc2)nc(-c2ccccc2)n1`, the survival was inactive: 70%.
In the case of `COc1cccc(CNC(=O)C2CCC(CNS(=O)(=O)c3ccc(Br)s3)CC2)c1` (stereo unspecified) it was inactive: 71%; in that of `CCOC(=O)C(Cc1c[nH]c2ccccc12)NC(=O)COc1ccc(Cl)c(C)c1` (stereo unspecified), active: 36%.
